Experimental data from the supplement of paper PMC10126150.
Values marked as one replicate rest on one cluster of the flow cell; about a third of the high ones do not repeat.

Test system: ATP
Assay: switch fluorescence ratio, 500 uM ATP over buffer (Cy3 cluster intensity, sum of 5 cycles each) (fold (ratio)); higher = stronger signal-on switching upon ATP binding; sequences stand for … in TCGTCGGCAGCGTCAGATGTGTATAAGAGACAGTTTTTTTTTTTTTTTTTTTTTTTTT…TC
Details: aptamer strand: ATP DNA aptamer (quencher-CACCTGGGGGAGTATTGCGGAGGAAGG + anchor), 100 nM annealed; ATP concentration: 500 uM; one replicate
Summary of the method: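 After annealing to 100 nM quencher-labelled ATP aptamer, Cy3-labelled switching-strand clusters on a modified Illumina MiSeq flow-cell were imaged in selection buffer. A second image followed after 15 min with 500 uM ATP at 22 °C, and five such buffer/ATP cycles were done, each separated by NaOH stripping and re-annealing. The fluorescence ratio, averaged per switch-domain sequence, is summed target-cycle over summed buffer-cycle Cy3 intensity per cluster, with clusters outside 100-1000 RFU excluded.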
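Also: ATP exposure 15 min at 22 °C before imaging.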

| Sequence | switch fluorescence ratio |
| --- | --- |
| CGTTTGGATG | 1.03 |
| TCCATATACG | 1.1 |
| TCAGGCAACT | 0.99 |
| GTAAGGTTGG | 0.975 |
| GTTCTATTTG | 1.05 |
| ACTTCATCTG | 1.57 |
| CGGGCCATAA | 1.02 |
| CAAGGTTATC | 0.977 |
| ATAACCATAC | 1.37 |
| GATCTGCCCC | 1.02 |
| ATCTTGATAT | 0.972 |
| TCTCGAATTG | 0.994 |
| ATATTTAAAG | 1.01 |
| AGTTATTAT | 1 |
| AGTGTATTCT | 0.999 |
| CAACCGTGGG | 0.971 |
| TTAATGTAGG | 0.99 |
| GAAGCGCTGA | 1.04 |
| AAGCATGAGC | 1.03 |
| ATGATAGATG | 1 |
| TAGGATCCAG | 0.959 |
| TATGTAGCCA | 1 |

| Sequence | switch fluorescence ratio |
| --- | --- |
| ACTTGGAGAA | 1.05 |
| TAAAACGGAT | 1 |
| GACTTATGCG | 1 |
| TAAGCATCCG | 1.02 |
| CATGGCTGTG | 1.01 |
| ACTTGCGTCC | 1.08 |
| ATTTATACAT | 1.02 |
| CCTAGCCCTC | 1.2 |
| AGTGGAGCG | 1.01 |
| ATCTGGTAGA | 1.01 |
| TCGACGGCTT | 1.14 |
| CCATGAAAAA | 0.987 |
| AATCTGTCGA | 0.955 |
| ATCAAAGTAA | 1 |
| ATGAGTGCAA | 1.05 |
| TATTGATTCC | 1.05 |
| GGATTTAAGG | 0.973 |
| TAGACGCAAG | 1.03 |
| TAGATATATT | 1.02 |
| CTGTACTGAT | 0.975 |
| AGGATCAGTT | 0.974 |
| GAACTGGGT | 1.01 |

| Sequence | switch fluorescence ratio |
| --- | --- |
| GTGATATCAT | 1 |
| TATCGAGGCG | 1.06 |
| TCTATATG | 1.03 |
| CATCCCGTAG | 1.32 |
| GCGATCGGAA | 1.1 |
| TACGAAATAG | 1.1 |
| TAAGGTCAA | 1.01 |
| ACTAGTATCG | 0.994 |
| CTGAGAATG | 0.998 |
| CAATTATAG | 0.975 |
| TACCGCAGAA | 2.08 |
| TCACGCCGTC | 0.986 |
| GTTTAAAAAC | 1.12 |
| GCGAGGGGAG | 0.96 |
| CTGTAGGAGA | 1.01 |
| AATCCATGAC | 1.07 |
| CTTTGGCCTA | 1.02 |
| GTTTAAGATG | 0.98 |
| ACATGCAATA | 1.77 |
| GATCCGCGGT | 1.22 |
| TTATAGTAGC | 0.976 |
| AGGGAATCTC | 0.989 |

| Sequence | switch fluorescence ratio |
| --- | --- |
| TATTGAACCG | 0.998 |
| CACGACTCCC | 1.15 |
| GTATCCATAG | 0.967 |
| TATGGGAGCG | 0.977 |
| AGCGATTGCG | 1.05 |
| CCCAAACTAT | 1.04 |
| GCAGTCCCAT | 1.04 |
| ACCCGTAACG | 1.08 |
| GAGCACACGA | 1.16 |
| TTTATAGTAG | 1.04 |
| CTTGTTTCGT | 1.02 |
| TTTGATGGTC | 1.02 |
| TGGACGGAGG | 0.981 |
| CTTCTGGAGA | 1.14 |
| TCGTAGCTGC | 1.93 |
| ATGGAGGCAT | 1.01 |
| GTAAACCTTG | 1.16 |
| TACATGGCGT | 1.02 |
| ACATATTATC | 0.989 |
